{"source": "PubChem BioAssay AID624417", "about": "(National Center for Advancing Translational Sciences (NCATS), 2012)", "note": "The whole screen tested about 410,000 compounds, of which about 6,400 (1.6%) were called active. The shares of active, inactive and inconclusive entries below differ from those in the screen. Calls come from the whole dose curve; as a rule, active = well fitted inhibition curve with a large enough effect; inconclusive = small, poorly fitted or top-dose-only effect; inactive = no such curve, though single readings can be large or run the other way. No potency is given beside an inconclusive call; the fits are too rough. % is set by controls: 0 for no effect and ±100 for the full control effect; potency is the fitted concentration of half-maximal effect; tags give direction and shape of the fitted curve."}
{"biological_target": "Glucagon-like peptide 1 receptor (Homo sapiens) (UniProt P43220)", "sequence (P43220 whole entry, looked up)": "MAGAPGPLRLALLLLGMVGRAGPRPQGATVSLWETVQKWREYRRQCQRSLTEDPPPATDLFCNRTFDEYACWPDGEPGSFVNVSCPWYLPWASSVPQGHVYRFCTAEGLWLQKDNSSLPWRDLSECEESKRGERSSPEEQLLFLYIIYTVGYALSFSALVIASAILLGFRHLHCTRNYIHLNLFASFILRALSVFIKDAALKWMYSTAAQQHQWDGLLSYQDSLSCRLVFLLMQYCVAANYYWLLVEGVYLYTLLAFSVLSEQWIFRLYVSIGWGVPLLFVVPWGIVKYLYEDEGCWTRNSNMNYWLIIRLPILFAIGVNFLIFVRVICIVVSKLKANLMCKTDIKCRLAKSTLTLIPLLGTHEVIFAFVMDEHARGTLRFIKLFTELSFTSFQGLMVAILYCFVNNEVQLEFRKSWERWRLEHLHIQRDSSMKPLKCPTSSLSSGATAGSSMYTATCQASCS", "test": "qHTS of GLP-1 Receptor Inverse Agonists (Inhibition Mode); note: nearly all actives have a fitted effect of over 55% in size", "settings": "HEK293 GLP-1R CRE-luciferase, luminescence, 24 h, GLP-1R form is constitutively active; activity change, negative = inhibition: at 38.3 µM (top of the series) unless noted", "procedure,_shortened": "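Luminescence readout: a drop in cAMP-driven luciferase signal flags inverse agonism at a constitutively active GLP-1R stably expressed in HEK293. Compound exposure lasted 24 hr at 37 deg C, 5% CO2.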"}
{"smiles": "C(=N\\Nc1nc2ccccc2s1)/c1ccco1", "Potency": "inconclusive [inhibitor, single point]"}
{"smiles": "CCCCOc1ccc(CNC(=O)c2ccc(NC(=O)N3CCSc4ncccc43)cc2)cc1", "Potency": "inconclusive [inhibitor, partial curve, poor fit]"}
{"smiles": "CSc1ccc(CN2CCC2(C)C(=O)NCc2ccccc2Br)cc1", "note": "(configuration not stated)", "Potency": "inconclusive [inhibitor, single point]"}
{"smiles": "C/C(CC(=O)Nc1cccc2c1CCCC2)=N\\NC(=O)c1cccc2ccccc12", "Potency": "inconclusive [inhibitor, partial curve, poor fit]"}
{"smiles": "CC(C)CNC(=O)C1(C)CCCN1Cc1ccc(OC(F)(F)F)cc1", "note": "(configuration not stated)", "Potency": "inconclusive [inhibitor, single point]"}
{"smiles": "COc1ccc(/C(C)=N/NC(=S)Nc2cc(C)ccc2C)cc1", "Potency": "inconclusive [inhibitor, partial curve, poor fit]"}
{"smiles": "CC(=O)c1ccc(NC(=O)COC(=O)c2c3c(nc4ccccc24)/C(=C\\c2cccs2)CCC3)cc1", "Potency": "inconclusive [inhibitor, partial curve, poor fit]"}
{"smiles": "CCOC(=O)c1ccc(CSC(=N)N)o1", "Potency": "inconclusive [inhibitor, single point]"}
{"smiles": "Cc1ccc(C)c(CN2C(=O)c3ccccc3S(=O)c3ccc(C(=O)N(C)Cc4ccccc4)cc32)c1", "note": "(configuration not stated)", "Potency": "inconclusive [inhibitor, single point]"}
{"smiles": "Oc1ccc(Cl)cc1C1=NNC(c2cc(Br)cc3c2OCOC3)C1", "note": "(configuration not stated)", "Potency": "inconclusive [inhibitor, single point]"}
{"smiles": "CCc1ccc(-c2cc(C)no2)cc1S(=O)(=O)NCCc1ccc(OC)c(OC)c1", "Potency": "inconclusive [inhibitor, single point]"}
{"smiles": "O=S(=O)(NCC1CCCO1)c1ccc(Cl)cc1", "note": "(configuration not stated)", "activity change, negative = inhibition": "inactive: 16.3%"}
{"smiles": "Cc1ccccc1C(=O)Nc1nnc(CC(=O)N/N=C/c2ccco2)s1", "activity change, negative = inhibition": "inactive: -7.04%"}
{"smiles": "Cc1onc(-c2ccccc2Cl)c1C(=O)OCC(=O)Nc1cccc(S(=O)(=O)N(C)C)c1", "Potency": "inconclusive [inhibitor, single point]"}
{"smiles": "O=C(Nc1ccccc1)N1CCCN(c2ccc(C(F)(F)F)cn2)CC1", "Potency": "inconclusive [inhibitor, partial curve, poor fit]"}
{"smiles": "Cc1ccc(C)c(N2CCN(C(=O)c3cc4c(=O)n(Cc5cccs5)ccc4nc3C)CC2)c1", "Potency": "inconclusive [inhibitor, single point]"}
{"smiles": "NC(N)=Nc1nc(C2COc3ccccc3O2)cs1", "note": "(configuration not stated)", "Potency": "inconclusive [inhibitor, single point]"}
